Reference: PubChem BioAssay AID1645882 (National Center for Advancing Translational Sciences (NCATS), 2021)
Hit rate of the full screen: of about 16,000 compounds, about 120 (0.75%) were called active. About 4% were inconclusive and are not listed. Calls come from the whole dose curve; as a rule, active = well fitted inhibition curve with a large enough effect; inconclusive = small, poorly fitted or top-dose-only effect; inactive = no such curve, though single readings can be large or run the other way. The list shows a part of the results.

Molecular target: Rap guanine nucleotide exchange factor 3 (Homo sapiens) (UniProt O95398)
Experiment: Validation qHTS for antagonist of cAMP-regulated guanine nucleotide exchange factor 3 (EPAC1); note: nearly all actives have a fitted effect of over 75% in size
Conditions: EPAC1 Rap1B-BODIPY-GDP exchange, fluorescence; series mostly up to 150 µM; activity change, negative = inhibition: at the top concentration
How it was run: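 EPAC1 (100 nM) mixed with 250 nM RAP1B-BODIPY-GDP and 50 uM GDP; compounds in concentration series, 5 min at room temperature. Fluorescence (ex 480/em 540 nm) read every 5 min for 30 min; normalized to ATA control and DMSO.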

Chain of UniProt O95398 (O95398 whole entry, looked up): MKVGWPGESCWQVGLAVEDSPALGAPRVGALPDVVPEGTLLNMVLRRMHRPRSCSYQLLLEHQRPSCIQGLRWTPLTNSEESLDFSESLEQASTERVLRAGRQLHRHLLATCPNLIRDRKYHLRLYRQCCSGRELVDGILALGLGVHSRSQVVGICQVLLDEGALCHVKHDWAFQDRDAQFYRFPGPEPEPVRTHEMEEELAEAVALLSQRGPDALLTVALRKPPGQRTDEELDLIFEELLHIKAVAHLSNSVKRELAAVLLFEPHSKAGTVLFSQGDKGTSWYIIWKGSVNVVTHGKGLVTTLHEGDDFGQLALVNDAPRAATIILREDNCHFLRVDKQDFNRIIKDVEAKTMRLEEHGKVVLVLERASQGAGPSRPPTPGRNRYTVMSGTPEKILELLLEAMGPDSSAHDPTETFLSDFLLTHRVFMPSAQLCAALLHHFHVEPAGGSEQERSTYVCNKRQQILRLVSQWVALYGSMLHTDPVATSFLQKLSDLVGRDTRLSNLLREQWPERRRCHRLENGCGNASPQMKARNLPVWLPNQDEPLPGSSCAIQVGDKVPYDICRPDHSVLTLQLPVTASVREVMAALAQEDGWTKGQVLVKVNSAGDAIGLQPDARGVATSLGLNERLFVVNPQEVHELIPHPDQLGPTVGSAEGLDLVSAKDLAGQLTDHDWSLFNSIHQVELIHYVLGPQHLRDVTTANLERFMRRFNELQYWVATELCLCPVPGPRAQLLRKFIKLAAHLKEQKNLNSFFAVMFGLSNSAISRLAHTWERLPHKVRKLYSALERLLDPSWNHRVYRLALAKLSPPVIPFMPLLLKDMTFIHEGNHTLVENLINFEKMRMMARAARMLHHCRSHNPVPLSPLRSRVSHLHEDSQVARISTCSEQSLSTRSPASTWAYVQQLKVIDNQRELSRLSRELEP

Activity change, negative = inhibition, inactive:
CCCCCCCC(=O)O -0.714%
Cc1ccccc1N1C(=O)c2cc(S(N)(=O)=O)c(Cl)cc2NC1C (configuration not stated)
O=C(O)CNC(=O)c1ccccc1I 16.6%
O=C(c1cccc(F)c1)N1CCC2(CCCN(C(c3ccccc3)c3ccccc3)C2)CC1 0.606%
O=C1C(=O)c2ncccc2-c2cccnc21 2.27%
COc1ccc(-n2c(=O)c(C)nc3cnc(N(C)C)nc32)cc1 7.69%
OCCOCCN1CCN(C(c2ccccc2)c2ccc(Cl)cc2)CC1 (configuration not stated) 42.3%
C[C@]12CCC(=O)C[C@@H]1CC[C@@H]1[C@@H]2CC[C@]2(C)C=CC[C@@H]12 -15.4%
O=C(O)c1ccc2c3c1cccc3c(=O)n1c3ccccc3nc21 3.75%
COC(=O)C[C@H]1c2cc(C(F)(F)F)ccc2S(=O)(=O)N1C(C)(C)C -9.33%
COc1cccc(CNC(=O)c2c(OC)cc(=O)n3c2CCN(C(=O)C2CC24CCCC4)CC3)c1 (configuration not stated) 0.649%
COc1cc(CN2CCOc3ccc(C(O)c4cccnc4)cc3C2)cc(OC)c1 (configuration not stated) 11.6%
COc1ccc2c(c1)OCC(Cc1ccc(OC)c(OC(C)=O)c1)C2=O (configuration not stated) -18.9%
CCN(CC)C1CCN(C(=O)c2cnn(-c3ncc4c(n3)-c3ccccc3CCC4)c2COC)C1 (configuration not stated) 13.8%
COC(c1ccc2c(c1)CN(C(=O)Cn1nc(C)c3ccccc3c1=O)CCO2)C1CCCCC1 (configuration not stated) 1.51%
COc1ccc(Oc2ncc3nc(-c4cn(C)c5ccccc45)c(=O)n(C4CC4)c3n2)cc1 10.9%
OC[C@H]1O[C@@](CO)(O[C@H]2O[C@H](CO)[C@@H](O)[C@H](O)[C@H]2O)[C@@H](O)[C@@H]1O 17.2%
CC(=O)NCCNc1ncnc2ccc(-c3ccoc3)cc12 5.73%
CC1(C)OC(=O)C=C[C@@]2(C)C1C[C@@H](O)[C@]1(C)C2CC[C@@]2(C)C(c3ccoc3)OC(=O)[C@H]3O[C@]321 (some centres not stated) 22.3%
CCCCC(=O)O[C@]1(C(=O)CO)CC[C@H]2[C@@H]3CCC4=CC(=O)CC[C@]4(C)[C@H]3[C@@H](O)C[C@@]21C 8.06%
Cc1noc(NS(=O)(=O)c2ccc(N)cc2)c1C
Cn1c(=O)c(-c2ccc(F)cc2)nc2cncnc21 16.8%
CCc1cccc2c3c([nH]c12)C(CC)(CC(=O)O)OCC3 (configuration not stated)
CC[N+](CC)(CC)CCC(O)(c1ccccc1)C1CCCCC1 (configuration not stated) -3.77% [at 75.8 µM]
CC(C)C(NS(C)(=O)=O)c1nnc2n1CCN(Cc1ccc3cccnc3c1)CC2 (configuration not stated) 8.21%
C[C@]12CC[C@@H]3c4ccc(O)cc4CC[C@H]3[C@@H]1C[C@@H](O)[C@@H]2O 2.28%
CC[C@@H](C)[C@H](NS(=O)(=O)c1cccc2ccccc12)C(=O)N[C@H](C=O)Cc1c[nH]c2ccccc12 -14.2%
